PubChem BioAssay AID588591 (National Center for Advancing Translational Sciences (NCATS), 2011)
Screen size: about 390,000 compounds; about 4,700 (1.2%) were called active. This list was built around the results that the source calls inconclusive (neither active nor inactive); the mix of calls is not that of the screen. The call rests on the fitted dose curve; in most records, active means well fitted inhibition curve with a large enough effect; inconclusive means small, poorly fitted or top-dose-only effect, or another doubt; inactive means no such curve, though single readings can be large or run the other way. Potencies of inconclusive entries are doubtful fits and often do not repeat.

target: DNA polymerase eta (Homo sapiens) (UniProt Q9Y253); assay: qHTS for Inhibitors of Polymerase Eta; details: recombinant Pol eta, fluorescent DNA replication assay; series mostly up to 114 µM
Procedure, shortened: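 Fluorescent replication assay: 50 nM final substrate added after a 15 min room-temperature compound preincubation with 10 nM enzyme. Signal taken at 0 min and again at 10 min.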
Potency means the concentration at half of the fitted maximal effect; tags describe the fitted curve by direction and shape.

Chain of UniProt Q9Y253 (Q9Y253 whole entry, looked up): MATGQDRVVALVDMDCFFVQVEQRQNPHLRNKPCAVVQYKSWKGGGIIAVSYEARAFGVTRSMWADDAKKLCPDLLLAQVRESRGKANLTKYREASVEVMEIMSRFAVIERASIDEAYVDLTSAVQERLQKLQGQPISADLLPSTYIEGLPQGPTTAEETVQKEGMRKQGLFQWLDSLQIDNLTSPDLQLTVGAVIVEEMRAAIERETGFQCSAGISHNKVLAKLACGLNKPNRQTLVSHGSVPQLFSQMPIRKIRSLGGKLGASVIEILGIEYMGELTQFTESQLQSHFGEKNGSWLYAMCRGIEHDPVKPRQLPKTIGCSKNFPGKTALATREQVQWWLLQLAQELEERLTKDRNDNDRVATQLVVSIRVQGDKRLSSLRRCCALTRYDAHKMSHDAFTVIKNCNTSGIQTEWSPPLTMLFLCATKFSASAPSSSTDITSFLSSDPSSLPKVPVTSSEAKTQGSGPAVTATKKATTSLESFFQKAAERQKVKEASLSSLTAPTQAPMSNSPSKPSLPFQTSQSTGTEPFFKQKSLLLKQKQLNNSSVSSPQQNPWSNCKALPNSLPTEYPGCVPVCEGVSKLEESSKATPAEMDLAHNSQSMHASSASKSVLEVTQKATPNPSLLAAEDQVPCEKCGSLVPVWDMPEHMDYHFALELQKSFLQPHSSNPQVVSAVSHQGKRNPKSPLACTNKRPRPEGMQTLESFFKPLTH

Structure (SMILES)	Potency
Cc1coc2c1C(=O)C(=O)c1c-2ccc2c1CCCC2(C)C	active: 89.1 µM
Nc1nc(-c2ccccc2)nc(-c2ccccc2O)n1	inconclusive: 31.6 µM [inhibitor, single point]
Cn1c(/N=C/c2c(O)ccc3ccccc23)nc2ccccc21	active: 89.1 µM
O=C(CSc1nnc(SCc2ccc(Cl)cc2)s1)N/N=C/c1c[nH]c2ccccc12	active: 3.16 µM
CC(C)(C)c1cc(C(=O)NNc2ccc(OC(F)(F)F)cc2)n(Cc2ccccc2)n1	inconclusive: 79.4 µM [inhibitor, partial curve, poor fit]
CC(C)(C)n1ncc2c(=O)n(Cc3cccc(Cl)c3)cnc21	inconclusive: 89.1 µM [inhibitor, partial curve, poor fit]
CC(C)(C)C1=C(C#N)C(c2ccncc2)C(C#N)=C(N)O1 (centres undefined)	inconclusive: 22.4 µM [inhibitor, single point]
CSc1ccccc1NC(=O)C1CC(c2c(F)cccc2Cl)=NO1 (centres undefined)	inconclusive: 89.1 µM [inhibitor, partial curve, poor fit]
COC(=O)c1ccc(N2NC(=O)/C(=C/c3ccc(-c4ccc(Cl)c(C(=O)O)c4)o3)C2=O)cc1	active: 3.16 µM
Cc1ccc2c(CC(=O)NC3CCCc4ccccc43)coc2c1 (centres undefined)	inconclusive: 25.1 µM [inhibitor, single point]
Cc1c(/C=N/NC(N)=O)c2ccccn2c1C(=O)c1ccc(F)cc1	inconclusive: 5.01 µM [inhibitor, partial curve, poor fit]
CC1(c2ccc3c(c2)OCO3)NC(=O)N(CC(=O)c2ccc[nH]2)C1=O (centres undefined)	inactive
CCN(CC1COc2ccccc2O1)C(=O)CN1C(=O)NC(C)(c2ccccc2)C1=O (centres undefined)	inactive
CCCn1c(SCC(=O)Nc2ccccc2C(=O)OC)nc2c1c(=O)n(C)c(=O)n2C	inconclusive: 39.8 µM [inhibitor, single point]
Cc1cc(C)c(NC(=O)CSc2nc3ccccc3nc2N2CCCCC2)c(C)c1	inactive
COc1cccc(NC(=O)CN(C)C(=O)CCc2nc3sc4c(c3c(=O)[nH]2)CCCC4)c1	active: 22.4 µM
COC(=O)c1ccc(C2SCC(=O)N2Cc2ccccc2)cc1 (centres undefined)	inconclusive: 39.8 µM [inhibitor, single point]
CCOc1cc(C(=O)O)cc(Cl)c1OCC#N	inconclusive: 35.5 µM [inhibitor, single point]
NC(=S)N/N=C/C=C/c1ccccc1	inconclusive: 20 µM [inhibitor, partial curve, poor fit]
O=C(C=Cc1ccc2c(c1)OCO2)c1ccccc1	inconclusive: 20 µM [inhibitor, partial curve, poor fit]
CCOC(=O)c1[nH]c2ccc(F)cc2c1NC(=O)c1cc(OC)c(OC)c(OC)c1	inconclusive: 31.6 µM [inhibitor, partial curve, poor fit]
C=CCNc1nc(-c2ccc([N+](=O)[O-])cc2)cs1	inconclusive: 56.2 µM [inhibitor, partial curve, poor fit]
CCCNC(=O)NC(=O)COC(=O)c1oc2ccc(OCC)cc2c1C	inactive

Structure (SMILES)	Potency
CCCCn1c(=O)[nH]c(=O)c2c1nc(Cn1ncc(Cl)c(Cl)c1=O)n2CCC	active: 56.2 µM
O=C(O)c1cc([N+](=O)[O-])cc2c1C=Cc1ccccc1O2	active: 28.2 µM
COc1ccc(N2CC(C(=O)N[C@@H](C)C(=O)NCc3ccccc3OC)CC2=O)cc1 (some centres undefined)	inactive
CC(C)(C)NS(=O)(=O)c1ccc(CCC(=O)NCc2ccco2)cc1	inactive
COc1ccc(C(=O)NCC(c2cccnc2)N2CCc3ccccc3C2)cc1OC (centres undefined)	inactive
Cc1cccc(-c2noc(CN(C(=O)C(c3ccccc3)c3ccccc3)C(C)C)n2)c1	inconclusive: 79.4 µM [inhibitor, partial curve, poor fit]
CC1=NN(c2nc(-c3ccc(C)cc3)cs2)C(=O)C1N=Nc1cccc(O)c1 (centres undefined)	inconclusive: 79.4 µM [inhibitor, single point]
Cc1cccc(-n2c(O)c(C=Nc3ccccc3O)c3ccccc3c2=O)n1	active: 44.7 µM
COc1ccc(S(=O)(=O)c2nnn(-c3cc(Cl)c(OC)cc3OC)c2C)cc1	active: 89.1 µM
O=C1C=CC(=O)N1CCCCCCN1C(=O)C=CC1=O	inconclusive: 22.4 µM [inhibitor, single point]
O=C(Nc1cccc(S(=O)(=O)NC2=NCCCCC2)c1)C1COc2ccccc2O1 (centres undefined)	inconclusive: 56.2 µM [inhibitor, partial curve, poor fit]
COc1cc(OC)cc(-c2c(-c3ccc(F)cc3)c3cc(-c4cnc(OC)nc4)ccc3n2C)c1	inactive
CCn1nc([N+](=O)[O-])c(C(C#N)c2nc3cc(C(F)(F)F)ccc3s2)c(Cl)c1=O (centres undefined)	active: 89.1 µM
O=C(Nc1ccc(NC(=O)c2ccco2)c(Cl)c1)c1ccc2c(c1)OCCO2	inconclusive: 10 µM [inhibitor, partial curve, poor fit]
CCOc1ccc(NC(=O)Cn2cc(C(=O)c3ccc(CC)cc3)c(=O)c3cc(C)ccc32)cc1	active: 50.1 µM
Cc1ccc(-c2ccc(/C=N/N=C3/NC(=O)C(CC(=O)O)S3)o2)c([N+](=O)[O-])c1 (centres undefined)	inconclusive: 31.6 µM [inhibitor, partial curve, poor fit]
COc1ccc(NC(=O)CSc2nc(C)cs2)c([N+](=O)[O-])c1	inconclusive: 0.631 µM [inhibitor, full curve, poor fit]
CN1CCN(C(=O)CCN2C(=O)c3ccccc3S2(=O)=O)CC1	inactive
CC(=O)OCC1=C(C(=O)O)N2C(=O)C(NC(=O)c3ccc(COc4c(C)cccc4Cl)o3)C2SC1 (centres undefined)	active: 44.7 µM
C/C(N)=C(/C#N)C(=O)CSc1nnc(SCc2ccc(Cl)cc2)s1	inconclusive: 11.2 µM [inhibitor, full curve, poor fit]
COc1c(C)cc(C(=O)C2CCCN(Cc3c(C)n(C)n(-c4ccccc4)c3=O)C2)cc1C (centres undefined)	inconclusive: 79.4 µM [inhibitor, partial curve, poor fit]
O=C1Nc2ccccc2Oc2cc([N+](=O)[O-])ccc21	active: 50.1 µM
O=C(O)COc1ccccc1C(Nc1ccccn1)c1cc(Cl)c2cccnc2c1O (centres undefined)	active: 50.1 µM

Structure (SMILES)	Potency
CCOc1ccc(N2C(=O)S/C(=C\c3ccc(O)c(OCC)c3)C2=O)cc1	inconclusive: 11.2 µM [inhibitor, full curve, poor fit]
O=C(COc1ccc(Cl)cc1)OCc1cc(=O)n2nc(-c3cccs3)sc2n1	inconclusive: 79.4 µM [inhibitor, partial curve]
C/C(=N/OC(=O)c1ccc(C)cc1)c1cccs1	inactive
O=C(NCCCn1ccnc1)c1cc(C(=O)C2CCCCC2)c[nH]1	inactive
O=C(O)c1ccc(N2Cc3ccccc3C2)cc1O	active: 5.62 µM
C=CCNS(=O)(=O)c1ccc(C(=O)OCc2cc(=O)oc3cc(OC)ccc23)cc1	inconclusive: 56.2 µM [inhibitor, partial curve, poor fit]
Cc1cc(C(=O)N/N=C/c2ccc(-c3cccc(Cl)c3Cl)o2)n[nH]1	inconclusive: 28.2 µM [inhibitor, single point]
Cc1ccn2c(=O)c(C(=O)NCCc3ccccc3)c(O)nc2c1	inactive
O=C(N/N=C\c1c(O)ccc2ccccc12)c1ccc(Cn2cccn2)o1	inconclusive: 44.7 µM [inhibitor, partial curve]
CCN(CC)c1nc2c3c(nc4c(c3c1C#N)CC(=O)N4c1ccc(Cl)cc1)NC(C)=N2	inconclusive: 28.2 µM [inhibitor, partial curve]
O=C1CC(=O)N2N=C(c3ccc([N+](=O)[O-])cc3)SC2=N1	inconclusive: 14.1 µM [inhibitor, full curve, poor fit]
Cc1ccc(N2NC(=O)/C(=C/C=C/c3ccco3)C2=O)cc1C	active: 79.4 µM
C=CCn1c(SCC(=O)NCCc2ccccc2)nnc1C1CC1	inactive
CCC1Nc2ncnc(N3CCCCC3)c2N(Cc2ccccc2)C1=O (centres undefined)	active: 89.1 µM
CCOC(=O)Cc1csc(NS(=O)(=O)c2cc(Cl)ccc2Cl)n1	inconclusive: 12.6 µM [inhibitor, full curve, poor fit]
COc1ccc(C(=O)C2CCN(CC(=O)Nc3ccc(OC)cc3OC)CC2)cc1	inconclusive: 89.1 µM [inhibitor, partial curve, poor fit]
O=C(c1ccco1)N1C(=O)c2cccc3cccc1c23	inconclusive: 35.5 µM [inhibitor, single point]
CC[C@H](C)[C@H]1CNC(=O)C(=O)N1CC1CCN(CCCc2ccc(OC)c(OC)c2)CC1	inactive
CC(=O)c1c(C)[nH]c(C(=O)OCc2nnc(-c3ccc([N+](=O)[O-])cc3)o2)c1C	inconclusive: 50.1 µM [inhibitor, partial curve]
O=C(O)c1cn(-c2ccc(N3CCCC3)c(F)c2)c2c(F)c(F)c(F)cc2c1=O	inconclusive: 39.8 µM [inhibitor, single point]
Cc1cc(Cl)ccc1OCC(=O)N1CCCCC1	inconclusive: 100 µM [inhibitor, partial curve, poor fit]
COc1ccc(/C=C2\SC(=O)N(CCCC(=O)Nc3ccc(C(=O)O)cc3)C2=O)cc1	inactive
O=C(CCc1ccccc1)NC1(Cc2ccccc2)CCN(CCCc2ccccc2)C1=O (centres undefined)	inconclusive: 79.4 µM [inhibitor, partial curve, poor fit]
